# Data published in the supplement of paper PMC3334620.
# The full ranking holds about 33,000 sequences; the median of “E-score (-0.5 to 0.5)” is about -0.032, and the highest 2% start at about 0.36. This is one part of the list.
# Target: T1, Sko1 (UniProt Q02100)
# T1 sequence: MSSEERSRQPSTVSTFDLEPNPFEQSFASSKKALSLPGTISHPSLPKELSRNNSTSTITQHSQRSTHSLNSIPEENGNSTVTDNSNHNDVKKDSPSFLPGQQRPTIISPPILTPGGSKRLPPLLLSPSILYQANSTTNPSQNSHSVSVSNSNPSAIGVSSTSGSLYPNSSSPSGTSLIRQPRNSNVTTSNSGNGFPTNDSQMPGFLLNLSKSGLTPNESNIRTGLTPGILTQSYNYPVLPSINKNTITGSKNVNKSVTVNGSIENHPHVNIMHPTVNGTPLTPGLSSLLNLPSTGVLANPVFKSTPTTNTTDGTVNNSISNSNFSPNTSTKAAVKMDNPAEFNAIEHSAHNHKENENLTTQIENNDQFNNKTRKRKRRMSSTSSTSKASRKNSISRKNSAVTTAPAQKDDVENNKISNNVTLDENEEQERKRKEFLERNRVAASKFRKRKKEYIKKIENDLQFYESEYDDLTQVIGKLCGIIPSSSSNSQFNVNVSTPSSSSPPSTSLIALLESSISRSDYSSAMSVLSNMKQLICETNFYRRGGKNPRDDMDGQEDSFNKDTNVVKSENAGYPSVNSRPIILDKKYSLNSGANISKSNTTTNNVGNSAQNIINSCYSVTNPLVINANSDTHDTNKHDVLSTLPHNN
# Assay: PBM E-score (8-mer binding enrichment) (E-score (-0.5 to 0.5)); higher = stronger / more preferred TF binding; most listed sequences are background and not binding sites
# Details: protein concentration: 200 nM; construct: GST-full length
# How it was run: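 Universal all-10-mer Agilent arrays, fresh or stripped once, were converted to double-stranded form by primer extension. GST-tagged yeast transcription factors from PURExpress in vitro transcription/translation, full-length or DNA-binding domain only, were applied at about 100-200 nM and detected with fluorescent anti-GST. After masliner normalisation, the Universal PBM Analysis Suite scored each ungapped eight-base word together with its reverse complement by E-score.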
row,Sequence,PBM E-score
1,AGACGCCA,0.0116
2,TACCTTCA,0.0673
3,CCGCTTAA,0.0447
4,ACCTGGGG,-0.209
5,CGACGCCC,-0.0842
6,CATGATCA,0.249
7,CCAGAGGC,-0.246
8,CTGCATTA,-0.0806
9,TAAGAGTA,0.0518
10,GGACTGGA,-0.254
11,AGGCTATA,-0.162
12,AAGTGTCT,-0.135
13,ATTTACAG,-0.0535
14,AAAGAGTC,-0.188
15,GCACCGCA,-0.113
16,ACAGATTC,0.0342
17,TGTCGACA,0.0772
18,AGGTGAAG,-0.112
19,GTACATAA,0.306
20,ACCGCCAC,-0.0653
21,ACTGCAGC,-0.191
22,ATCGGCAA,-0.0288

row,Sequence,PBM E-score
1,AAGGAATT,0.0587
2,GCCGCCCC,-0.28
3,CTGCTGCC,-0.157
4,GGTAGACA,-0.103
5,ATCTCTTA,0.109
6,ATGTGCAC,-0.0142
7,AGAGTCCC,-0.247
8,AAGCAGCT,-0.163
9,ACGAACGG,0.0822
10,AATAGAGA,0.0523
11,GCATAGAA,-0.113
12,CATCCCCA,-0.0522
13,CAAGCGAG,0.0141
14,CATTAATA,0.0996
15,GTGGAGTA,0.0664
16,ACGTCTCG,0.24
17,AACCGTGG,-0.188
18,ACCCAGTA,-0.0464
19,CCGCGCGC,-0.0942
20,GGTATCAA,-0.00387
21,AGCACGAG,-0.0498
22,AGGGATCC,-0.468

row,Sequence,PBM E-score
1,ATGTCGCG,0.186
2,CGAGAACG,0.0906
3,GCTGACCA,-0.222
4,GCGAGACC,-0.071
5,ACTTGTTC,0.0603
6,AATGAATT,0.198
7,GAAGAACC,-0.163
8,CCTCCCGC,-0.0494
9,ACAGGACC,-0.311
10,AGTGGGTA,-0.189
11,GTTGGGGA,-0.0358
12,AGCATCCC,-0.229
13,CACATGGG,-0.344
14,AGACCGAT,-0.152
15,CACGCAGA,0.0703
16,AAAAACGA,0.264
17,TATGGGAA,-0.0612
18,ACTACAAC,0.0201
19,TCTCCGCA,-0.107
20,CAGGTACC,-0.136
21,GAAGCGTC,0.0877
22,GAACGGGC,-0.259

row,Sequence,PBM E-score
1,CCTCCTCG,0.0848
2,AGTCTGCG,-0.281
3,CCCGACAC,-0.249
4,ATCCCATA,-0.127
5,CAAGTTGG,-0.0274
6,CATGGTCC,-0.035
7,AGTCACAA,0.0671
8,ATACTGCG,-0.146
9,GCAAGCCC,-0.0618
10,CATGCGGC,-0.0261
11,ATAGCAAA,0.16
12,GTATGAGA,0.125
13,ATGAGGAA,0.0995
14,AAGCGCGG,-0.193
15,CCAAGCGA,-0.233
16,CACTCTCC,-0.134
17,CCTTAATA,0.0379
18,GATGCATA,-0.0156
19,CCCCCCCA,-0.32
20,ACTGGTGA,-0.068
21,GGTACAGA,-0.136
22,CAAGATAG,-0.136

row,Sequence,PBM E-score
1,CATCCTGC,-0.163
2,GCGATTAC,0.144
3,GACCGCGA,-0.305
4,CCACTCAC,-0.0544
5,GCGTGAGA,0.179
6,ATTTTTGC,0.216
7,AACCTTTC,-0.273
8,ATTGTCGG,-0.177
9,CGGAAAAG,-0.161
10,AAGAGAGT,-0.0858
11,AACCAGCA,-0.289
12,CTAGAGCC,-0.291
13,CCACAACC,0.00126
14,CAATATTC,-0.143
15,CTCATTTA,0.0493
16,CCAGGAAC,-0.196
17,ATGCGGGG,-0.185
18,AGGTCCAA,-0.225
19,CAGGATAA,-0.045
20,AACGGATT,0.196
21,GCAATGGC,-0.166
22,TCAAGGCA,-0.274
